From PubChem BioAssay AID540317 (National Center for Advancing Translational Sciences (NCATS), 2011)
Among all 390,000 compounds or so, about 2,200 (0.56%) were called active. Inconclusive means that the source gave no clear call. Such entries were picked first, then a sample of the others. The call rests on the fitted dose curve; in most records, active means well fitted inhibition curve with a large enough effect; inconclusive means small, poorly fitted or top-dose-only effect; inactive means no such curve, though single readings can be large or run the other way. Where the call is inconclusive, the potency comes from a doubtful curve fit.

molecular target: Chromobox protein homolog 1 (Homo sapiens) (UniProt P83916); assay: HTS for Inhibitors of HP1-beta Chromodomain Interactions with Methylated Histone Tails; settings: AlphaScreen HP1-beta / biotin-H3K9me3 peptide binding; series mostly up to 114 µM; further: nearly all actives have a fitted effect of over 70% in size
UniProt P83916, sequence (P83916 whole entry, looked up): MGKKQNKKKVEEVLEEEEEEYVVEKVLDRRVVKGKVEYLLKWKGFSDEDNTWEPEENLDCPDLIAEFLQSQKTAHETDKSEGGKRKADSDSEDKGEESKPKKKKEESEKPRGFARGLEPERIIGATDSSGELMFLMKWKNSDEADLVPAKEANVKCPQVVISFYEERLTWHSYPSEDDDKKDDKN
Method in brief: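 AlphaScreen: HP1-beta (50 nM) preformed 30 min with biotin-H3(1-18)K9me3 peptide (50 nM) in PBS pH 7.4, 0.01% Tween-20. Compound added for 30 min at RT, then streptavidin donor/nickel chelate acceptor beads (10 ug/mL) for 30 min.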
Potency means the concentration at half of the fitted maximal effect; tags describe the fitted curve by direction and shape.

SMILES | Potency
NCC(=O)NCC(=O)NC[C@H]1O[C@@H](n2ccc(=O)[nH]c2=O)[C@H](O)[C@@H]1O | inactive
COc1ccccc1CNc1ncc(-c2ccccc2)n1C | inconclusive: 15.8 µM [inhibitor, full curve]
COc1ccc(N2CCN(C(=O)c3cc4c(s3)CCCCC4)CC2)cc1 | inconclusive: 28.2 µM [inhibitor, full curve]
CN1CCN(C(c2cccnc2)c2ccc3cccnc3c2O)CC1 (centres undefined) | inconclusive: 7.94 µM [inhibitor, full curve]
CCCCC(=O)Nc1ccccc1Oc1ccccc1 | inactive
CCCCc1nc2ccccc2c(NC(=O)CN(CC)CC)c1CCC | inconclusive: 25.1 µM [inhibitor, full curve]
Cc1nn(-c2ccccc2)c2c1N(CCCC(=O)NCc1ccccc1)C(=O)CS2 | inconclusive: 89.1 µM [inhibitor, partial curve, poor fit]
Cc1c(CC(=O)O)c(=O)oc2cc(OCc3nn[nH]n3)ccc12 | inactive
CCOC(=O)C1CCCN(C/C=C/c2ccccc2)C1 (centres undefined) | inconclusive: 35.5 µM [inhibitor, partial curve]
C=CCN(N=Nc1cccc([N+](=O)[O-])c1)c1cccc([N+](=O)[O-])c1 | inconclusive: 15.8 µM [inhibitor, full curve]
COc1cccc(CN2C(=O)C3(SCC(=O)N3c3ccc(C(C)C)cc3)c3ccccc32)c1 (centres undefined) | inactive
COc1ccc(CN2CCC3CC2c2cc(Cl)ccc23)cc1 (centres undefined) | inconclusive: 79.4 µM [inhibitor, single point]
COc1ccc(OC)c(NC(=O)COC(=O)COc2ccc(Nc3ccccc3)cc2)c1 | inconclusive: 39.8 µM [inhibitor, partial curve]
CCOC(=O)c1ccc(N2C(=O)Cc3cc(OCC)c(OCC)cc3C2c2ccccc2)cc1 (centres undefined) | inactive
Clc1cccc(OCCN2CCNCC2)c1 | inconclusive: 15.8 µM [inhibitor, partial curve, poor fit]
O=C(O)c1ccc(Nc2ncnc3c2cnn3Cc2ccccc2)cc1 | inconclusive: 39.8 µM [inhibitor, single point]
CC1(C)CC(=O)C(N=Nc2ccc(C(F)(F)F)cc2[N+](=O)[O-])=C(O)C1 | inconclusive: 39.8 µM [inhibitor, partial curve]
CCCCCCCCn1cnc2c(N)c(C)c(C)cc21 | inconclusive: 56.2 µM [inhibitor, partial curve, poor fit]
Cc1ccc(-c2nc(CS(=O)CC(=O)NC3CCCCC3)c(C)o2)cc1 (centres undefined) | inactive
